# According to the BET-seq Pho4 binding data (Le et al. 2018):
# This is one part of the list. Values were computed here from the reads of four pooled replicates and scatter widely.
# Target: T1, Pho4 (S. cerevisiae) (UniProt P07270)
# T1 sequence: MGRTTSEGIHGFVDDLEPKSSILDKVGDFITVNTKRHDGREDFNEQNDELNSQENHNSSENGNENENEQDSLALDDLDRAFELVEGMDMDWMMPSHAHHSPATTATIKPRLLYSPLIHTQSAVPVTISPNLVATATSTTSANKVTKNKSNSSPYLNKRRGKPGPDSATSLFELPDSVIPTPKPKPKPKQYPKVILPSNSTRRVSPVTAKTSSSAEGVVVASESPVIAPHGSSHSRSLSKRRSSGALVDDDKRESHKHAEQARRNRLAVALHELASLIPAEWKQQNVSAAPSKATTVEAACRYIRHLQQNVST
# Assay: relative binding free energy (BET-seq); higher = weaker binding
# Conditions: reference: library average
row,Sequence,relative binding free energy [kcal/mol]
1,TTTGGCACGTGGTGGG,-0.12
2,ATAAGCACGTGGCTTT,-0.09
3,AAATTCACGTGAGGAT,0.28
4,GGCAACACGTGTTTGT,0.05
5,TCTATCACGTGTGTGT,0.15
6,AGTTACACGTGTGTGG,0.11
7,TCCAGCACGTGTGGGA,0.25
8,GTTGCCACGTGTTTTA,-0.04
9,GAGTTCACGTGGGGCG,0.27
10,AGTGGCACGTGTTTAT,-0.05
11,AGGGCCACGTGTGGAG,-0.04
12,CTAGGCACGTGGGGTA,-0.34
13,TTGGTCACGTGGGGAA,0.03
14,GTGGGCACGTGAGACG,-0.11
15,GGGGTCACGTGGCTAT,0.11
16,TGATTCACGTGGATTC,0.34
17,GGGGACACGTGAGCTG,0.21
18,GAAGCCACGTGAGGTG,0.2
19,GGATTCACGTGAGTAA,0.49
20,TTAAGCACGTGGTTGG,-0.07
21,AGGTTCACGTGCTAGT,0.26
22,GGGTGCACGTGCGCTG,-0.21
23,TGCGACACGTGGAGTG,-0.03
24,GAAGTCACGTGGTTGC,0.12
25,ATTTTCACGTGTTTGT,0.21
26,ATTGACACGTGATGTG,0.22

row,Sequence,relative binding free energy [kcal/mol]
1,AGATACACGTGGTGGA,0
2,CGGTTCACGTGGAGGG,0.2
3,TGATACACGTGGGGGA,-0.04
4,ATGTGCACGTGCCGGT,-0.14
5,GATCGCACGTGGTGTT,-0.22
6,AGGCGCACGTGTGTTG,-0.06
7,GTTGTCACGTGTCGAG,0.05
8,AGGATCACGTGCGGAG,0.15
9,TGATTCACGTGAGGGG,0.41
10,TTCGGCACGTGGGAGG,-0.19
11,TTGTTCACGTGCATGT,0.1
12,AGTCACACGTGAGTAG,0.43
13,GTTATCACGTGTAATA,0.3
14,TTCCTCACGTGGGTGG,0.05
15,TTTATCACGTGGCTAG,-0.01
16,ATGTGCACGTGTTGGA,-0.01
17,GCGGGCACGTGGGAGA,-0.14
18,GGGGTCACGTGTAATT,0.39
19,TTGAGCACGTGGTACT,-0.19
20,GTAGGCACGTGTAATT,0.07
21,TTATTCACGTGTCAGG,0.37
22,CGAGGCACGTGAGTGG,0.15
23,TCCTTCACGTGGGTGT,0.15
24,ATTGTCACGTGTTATA,-0.05
25,TTCGGCACGTGTTAGG,-0.03
26,GCGGGCACGTGGGATA,-0.2

row,Sequence,relative binding free energy [kcal/mol]
1,GGTGCCACGTGGCAGG,-0.1
2,GTAAACACGTGTCGGT,0.06
3,ATCATCACGTGGGGGC,-0.01
4,TGGTGCACGTGAACTT,0.15
5,TTGGGCACGTGCGTCA,-0.25
6,AATTTCACGTGAGGTA,0.41
7,TGGGTCACGTGAGTTC,0.33
8,TGCTTCACGTGGGATA,0.05
9,GGTAACACGTGGCTTG,-0.06
10,GGTGTCACGTGTTTCA,0.2
11,TTGAGCACGTGAGTTT,0.2
12,TAGGGCACGTGGTTCG,-0.18
13,AAGTACACGTGGTTCT,0.11
14,ATTGTCACGTGACTTT,0.07
15,TTGTCCACGTGCTTGG,0.2
16,GGATCCACGTGGGTGA,-0.05
17,GTTTGCACGTGGATCT,0.08
18,GGTGTCACGTGTGGTT,0.14
19,ATGGTCACGTGCGGTT,0.14
20,TGTGGCACGTGACTTT,0.05
21,GACTTCACGTGCGTGT,0.34
22,CTTGTCACGTGATCGG,0.21
23,CAGTTCACGTGTTGTA,0.05
24,AGGTACACGTGGATCG,0.09
25,GAAGTCACGTGGGCGG,0.05
26,TTGTGCACGTGAATTT,0.33

row,Sequence,relative binding free energy [kcal/mol]
1,AAAGTCACGTGGTTGC,0.09
2,AATTGCACGTGTCGGA,0.2
3,GTTTGCACGTGCATGG,0.1
4,TTAATCACGTGATGTC,0.38
5,ACGTTCACGTGATTGG,0.43
6,GCGTGCACGTGGAGTA,-0.03
7,TGCAGCACGTGGAGTA,-0.16
8,ATGGGCACGTGGACCG,-0.05
9,TGGGTCACGTGCGTTG,0.02
10,TGGTCCACGTGTGTCG,-0.06
11,ACGGTCACGTGTGGTG,0.07
12,GTGCTCACGTGAGTTG,0.32
13,TACGGCACGTGTGATG,0.05
14,TTATTCACGTGTATTT,0.24
15,TTTATCACGTGTGGGT,0.18
16,ATATTCACGTGGAGGT,0.21
17,TGCGGCACGTGTGGCA,-0.15
18,GTTTGCACGTGTCTCG,0.09
19,ATGGCCACGTGTATTT,-0.09
20,GGTCGCACGTGGGCTT,-0.2
21,AGAATCACGTGGGTAA,0.03
22,TGCTGCACGTGGTGAA,-0.03
23,GATGTCACGTGGACGG,0.25
24,GCTGTCACGTGTTTTT,0.08
25,CGTTGCACGTGTTGTA,-0.07
26,GTCGGCACGTGGTGTA,-0.22

row,Sequence,relative binding free energy [kcal/mol]
1,TGCACCACGTGTGGGT,-0.07
2,TGCGTCACGTGGGCAT,-0.04
3,GAGGTCACGTGAGGCT,0.45
4,GCGGACACGTGTGGGT,0.08
5,TCTGACACGTGGTATG,-0.06
6,AACGGCACGTGAGGTT,0.1
7,GTTTTCACGTGTCGGT,0.39
8,GCGGTCACGTGTTAAG,0.1
9,AGGTCCACGTGTGTGG,-0.01
10,ACTTACACGTGGTTAT,0.13
11,TGTAGCACGTGCGGGA,-0.1
12,TTTAGCACGTGGCGGC,-0.07
13,ATTATCACGTGGCTAT,0.06
14,GGGTTCACGTGCTTAT,0.38
15,GGAGGCACGTGGGCAT,-0.21
16,TTTTCCACGTGTGTAG,0.09
17,TTATACACGTGGGCGT,-0.1
18,GAATACACGTGTGGTA,0.21
19,ATAATCACGTGGTGGT,0.13
20,ACAGGCACGTGGTATG,-0.22
21,ATGGGCACGTGTACTT,0.07
22,CGGAGCACGTGCTGTG,-0.13
23,GTTGTCACGTGGAAGT,0.23
24,CTGGTCACGTGTAGTC,0.12
25,ATCTACACGTGTTTGT,0.06
26,TGCTTCACGTGATTGG,0.34

row,Sequence,relative binding free energy [kcal/mol]
1,CTTTGCACGTGAATTT,0.37
2,AGCGACACGTGGGTCT,-0.04
3,TTTAACACGTGAGATG,0.18
4,GGATTCACGTGGGACT,0.3
5,CATGCCACGTGGTGGG,-0.13
6,ACCGTCACGTGGTGGT,0.03
7,TGGGGCACGTGGTTAA,-0.15
8,GATGTCACGTGTCTGG,0.16
9,TGGAACACGTGCGTGT,-0.08
10,TAGTGCACGTGATCTG,-0.08
11,TATCGCACGTGTCGGT,-0.12
12,GTAGTCACGTGGAAGA,0.27
13,GTAGCCACGTGGTAGG,-0.23
14,TCGGACACGTGAGTGG,0.18
15,GTGGACACGTGTGTGC,-0.1
16,TAAAGCACGTGGATTT,-0.14
17,ATTGACACGTGACGTT,0.23
18,CCGGTCACGTGGGAGT,-0.05
19,AGGGGCACGTGTAGTG,-0.09
20,ATAAACACGTGTGGGC,0.01
21,GTTGTCACGTGGGATC,0.02
22,ACTCGCACGTGGGGTT,-0.13
23,GTCTTCACGTGGTTCT,0.28
24,TTAGGCACGTGTTTAC,-0.22
25,CTGTTCACGTGTGCGT,0.22
26,GGGGTCACGTGTGAAG,0.28

row,Sequence,relative binding free energy [kcal/mol]
1,GTAGGCACGTGTGGAA,0
2,AATTTCACGTGGGCAT,0.14
3,TTTATCACGTGTCTTT,0.23
4,TATCTCACGTGCAGTT,0.45
5,TCGTACACGTGATGGT,0.12
6,AATATCACGTGTGAAT,0.12
7,TAAAACACGTGTTGGT,0.12
8,GTTTGCACGTGAGAGA,0.2
9,TACAACACGTGGGTTT,-0.11
10,CATGCCACGTGTGTTG,-0.07
11,AGTGCCACGTGGAGCG,-0.15
12,TGAGGCACGTGAATCG,0.02
13,GACTTCACGTGGGGGA,0.22
14,CATTGCACGTGTTTTT,0.07
15,GTTGACACGTGTGCTG,0.03
16,GTTAGCACGTGGTTCG,-0.08
17,CTTAGCACGTGCGGTT,-0.11
18,CGAGTCACGTGGTGGG,-0.03
19,GTAGGCACGTGTTGGA,-0.07
20,GTCGTCACGTGAAGTG,0.23
21,GTGTGCACGTGGTTCG,-0.05
22,TGTTGCACGTGGCCTT,-0.06
23,GTCGACACGTGGTTGG,0.11
24,GTACACACGTGGGGAA,0.05
25,ATTGGCACGTGGAAGC,-0.01
26,TAAGACACGTGGTGCT,0.01

row,Sequence,relative binding free energy [kcal/mol]
1,TGCGACACGTGGGTGA,-0.16
2,CTCGTCACGTGGGGGT,-0.1
3,GGGTTCACGTGGTTCG,0.34
4,CGGGCCACGTGGGTTG,-0.22
5,TGTGGCACGTGGAGCT,-0.02
6,TTAGTCACGTGCTTGA,0.11
7,TGTAACACGTGGGAAG,-0.04
8,ATAGGCACGTGTTGGC,-0.06
9,TAATGCACGTGAGTGT,0.08
10,ACTGGCACGTGATGGT,-0.03
11,ATCGTCACGTGGGGGC,-0.15
12,GTGCACACGTGGGAGT,0.01
13,GTTTTCACGTGATGTT,0.38
14,AGTGTCACGTGAGTCA,0.37
15,GACTTCACGTGGGTGT,0.29
16,CAATGCACGTGGTTGG,-0.04
17,GCTATCACGTGGAGTG,0.24
18,CTTGGCACGTGTCGAG,0.13
19,TTGGACACGTGAATAG,0.29
20,AGGTACACGTGTGTAT,0.05
21,GTTTTCACGTGGGGCG,0.32
22,TAAGACACGTGTTGTT,0.01
23,GTGGGCACGTGGTGAC,-0.18
24,TGCTTCACGTGCTGTT,0.22
25,TGTTACACGTGTCGAT,0.01
26,TGGTCCACGTGGTGGG,-0.02

row,Sequence,relative binding free energy [kcal/mol]
1,CGGCACACGTGTGGGT,0.06
2,ATTGTCACGTGGCGTT,0.15
3,GGTACCACGTGTGCGG,-0.05
4,GTGTTCACGTGAGAGG,0.49
5,TGTACCACGTGTGGAG,-0.08
6,GGACGCACGTGCGTGG,-0.12
7,AATGGCACGTGGGTAA,-0.23
8,AGGTGCACGTGTCTAG,-0.1
9,AGTAGCACGTGTTTTG,-0.2
10,TATATCACGTGATTAA,0.22
11,TATGTCACGTGGTAAT,0.02
12,TAGATCACGTGAGGCT,0.25
13,TGCATCACGTGGTAGT,0.04
14,ATATTCACGTGATTAT,0.36
15,GTGGTCACGTGTATTC,0.17
16,ACTGTCACGTGTGTTA,-0.04
17,CTTGTCACGTGCTAGG,0.15
18,TGGAACACGTGTTTTG,-0.03
19,GGGAGCACGTGTGGGG,-0.03
20,GGTAGCACGTGGAAGA,-0.08
21,AGTTTCACGTGCCGGG,0.36
22,GGTCTCACGTGTGAGT,0.35
